PubChem BioAssay AID1745845 (National Center for Advancing Translational Sciences (NCATS), 2022)
Several values for one entry are separate records, joined by “and”; a condition that tells them apart may be missing. Equal entries are not always repeated. The campaign covered roughly 360,000 compounds. About 2,600 (0.72%) were called active. Inconclusive means that the source gave no clear call. Such entries were picked first, then a sample of the others. Calls come from the whole dose curve; as a rule, active = well fitted inhibition curve with a large enough effect; inconclusive = small, poorly fitted or top-dose-only effect; inactive = no such curve, though single readings can be large or run the other way. A potency beside an inconclusive call is a rough fit, not a confirmed value.

Test: Primary qHTS for Inhibitors of ATXN expression; note: nearly all actives have a fitted effect of over 55% in size
Conditions: HEK-293 ATXN2-luciferase reporter, luminescence, 24 h; series mostly up to 57 µM
In short: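 ATXN2-luciferase reporter cells (luciferase flanked by upstream and downstream ATXN2 gene portions) were treated 24 h at 37 °C with compounds at up to 57 uM. SteadyGlo luminescence gave expression; GF-AFC fluorescence gave viability.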
Potency is the fitted concentration of half-maximal effect; tags give direction and shape of the fitted curve.

SMILES	Potency
COc1ccccc1-c1ccc2c(c1)C(C)(Cc1cccc(F)c1)C(=O)N2 (stereo not given)	inconclusive: 39.8 µM [inhibitor, single point]
COc1ccc(C(C)=O)cc1CC1(C)C(=O)Nc2ccc(-c3cccc(C(F)(F)F)c3)cc21 (stereo not given)	inconclusive: 25.1 µM [inhibitor, single point]
Cc1ccc(OCC(=O)Nc2cccc(S(=O)(=O)N3CCCCC3)c2)c([N+](=O)[O-])n1	inactive
COc1cc2c(cc1OC)CN(C(=O)c1nn(Cc3ccccc3)c(=O)c3ccccc13)CC2	inactive
Cc1c(C(O)CN2CCN(Cc3ccc4c(c3)OCO4)CC2)c2ccccc2n1C (stereo not given)	inactive
COC(=O)c1ccc(OCC2c3cc(OC)c(OC)cc3CCN2C(=O)c2cccc(C)c2)cc1 (stereo not given)	inconclusive: 39.8 µM [inhibitor, single point]
CCOC(=O)c1cccc(NS(=O)(=O)c2cc(Br)cc3c2N(C(=O)C2CC2)CC3)c1	inconclusive: 20 µM [inhibitor, single point]
CCOCCCNC(=S)Nc1ccc2nc3n(c(=O)c2c1)CCCCC3	inactive
CCCCN(Cc1cc2cc(OC)ccc2[nH]c1=O)S(=O)(=O)c1ccc(C)cc1	inconclusive: 39.8 µM [inhibitor, single point]
O=C(COc1cccc(C(F)(F)F)c1)Nc1ccc(S(=O)(=O)N2CCCCC2)cc1	inconclusive: 25.1 µM [inhibitor, partial curve, poor fit]
CCN1CCN(Cc2ccc(NC(=O)c3cc(NC(=O)c4cncc(-c5cccs5)c4)cc(OC)c3)cc2C(F)(F)F)CC1	inconclusive: 28.2 µM [inhibitor, single point] and active: 25.1 µM
Cc1ccc(CNC(=O)CCNS(=O)(=O)c2ccc(C)cc2)cc1	inactive
O=C(CCCN1C(=O)/C(=C/c2ccccc2Cl)SC1=S)Nc1cccnc1	inconclusive: 15.8 µM [inhibitor, partial curve]
C[C@H]1O[C@@H](O[C@H]2[C@@H](O)C[C@H](O[C@H]3[C@@H](O)C[C@H](O[C@H]4CC[C@@]5(C)[C@H](CC[C@@H]6[C@@H]5C[C@@H](O)[C@]5(C)[C@@H](C7=CC(=O)OC7)CC[C@]65O)C4)O[C@@H]3C)O[C@@H]2C)C[C@H](O)[C@@H]1O	active: 0.316 µM
CCOc1ccc(-c2[nH]ncc2Oc2ccccc2OCC)c(O)c1	inconclusive: 22.4 µM [inhibitor, partial curve, poor fit]
CC(C)(C)c1ccc(-c2nnc(-c3ccccc3NC(=O)c3cccc(C(F)(F)F)c3)o2)cc1	inactive
COc1ccc2nc(NC(=O)c3ccc([N+](=O)[O-])o3)sc2c1	inactive
Cn1c(/C=C/c2ccc(Cl)cc2Cl)c([N+](=O)[O-])c(=O)n(C)c1=O	inconclusive: 10 µM [inhibitor, partial curve, poor fit]
CCOC(=O)C1(Cc2ccc(Cl)cc2)CCN(Cc2nccn2CC)CC1	inactive
Oc1c(CN2CCCCC2)cc(COCc2ccccc2)c2cccnc12	active: 3.16 µM
O=[N+]([O-])c1ccc(OC(F)F)c(/C=N/n2cnnc2)c1	inactive
Cc1ccc(CNC(=O)/C=C/c2cccs2)cc1	inactive

SMILES	Potency
O=C(CCCN1C(=O)/C(=C/c2ccc3c(c2)OCO3)SC1=S)Nc1cccc(C(=O)O)c1	inconclusive: 11.2 µM [inhibitor, partial curve]
CCOC(=O)CSc1cccc2cccnc12	active: 20 µM
c1ccc(Oc2nc(-c3ccccn3)nc3ccccc23)cc1	inconclusive: 2.82 µM [inhibitor, single point]
Cc1c(OC(C)C(=O)NCc2ccncc2)ccc2c3c(c(=O)oc12)CCCC3 (stereo not given)	inconclusive: 39.8 µM [inhibitor, single point]
Cc1cc(=O)oc2c(N)nccc12	inconclusive: 39.8 µM [inhibitor, single point]
COc1ccc(NC(=O)CSc2cn(CCNC(=O)c3ccc(OC)cc3)c3ccccc23)cc1	inconclusive: 31.6 µM [inhibitor, partial curve, poor fit]
O=C(NCc1ccccc1)C1=C[C@@H](C2CCCCC2)C[C@@H](OCCCCO)O1	inconclusive: 39.8 µM [inhibitor, partial curve, poor fit]
CCCCN(C)CCNC(=O)c1cc(-c2ccc(Cl)s2)nc2ccccc12	inactive
CCOC(=O)Nc1sc2c(c1C(=O)OCC)CCC2	inactive
CC(=O)Oc1ccc(C#C/C=C2\c3ccccc3C(=O)N2c2ccccc2)cc1	inconclusive: 39.8 µM [inhibitor, partial curve, poor fit]
CC(C)C(CCNC1CCN(C)CC1)c1ccc(Cl)cc1 (stereo not given)	inconclusive: 17.8 µM [inhibitor, partial curve]
N#CC1=C(N)N(c2ccccc2)C(c2ccccc2)C1(C#N)C#N (stereo not given)	inactive
O=C(NC(Nc1nc2ccc([N+](=O)[O-])cc2s1)(C(F)(F)F)C(F)(F)F)c1ccccc1	active: 0.891 µM
Cc1cccc(-c2noc(CN(C(=O)c3c(-c4ccccc4Cl)noc3C)C(C)C)n2)c1	inconclusive: 25.1 µM [inhibitor, partial curve, poor fit]
O=C(O)c1ccc(N/N=C/c2c(F)cccc2Cl)cc1	inconclusive: 14.1 µM [inhibitor, single point]
COc1ccc(CNCc2ccco2)cc1OCc1ccccc1	inactive
CCc1ccccc1NC(=O)Nc1ccc2snnc2c1	inconclusive: 39.8 µM [inhibitor, single point]
O=C(CNC(=O)c1cccc(Br)c1)N/N=C/c1cc(Br)cc(Br)c1O	inconclusive: 39.8 µM [inhibitor, single point]
O=C(NCc1ccncc1)c1ccc(OCc2ccccc2)cc1	inactive
COc1ccc([C@H]2N[C@]3(CCCN(Cc4ccccc4)C3=O)[C@H]3C(=O)N(C)C(=O)[C@@H]23)cc1	inactive
COc1cc(NC(=O)CSc2ncnc3scc(-c4ccccc4)c23)c(C(=O)O)cc1OC	inconclusive: 0.844 µM [inhibitor, full curve, poor fit]
Cc1ccc2nc(-c3ccccc3)cn2c1	active: 5.01 µM

SMILES	Potency
O=C(c1ccc(Cl)cc1)C1CCCN(Cc2cccn2-c2ccccn2)C1 (stereo not given)	inconclusive: 12.6 µM [inhibitor, partial curve]
Cc1ccc2nc(C)cc(Nc3ccc([N+](=O)[O-])cc3)c2c1	inconclusive: 3.98 µM [inhibitor, full curve, poor fit]
Cc1cccc2c1N(CCOc1ccc(C(C)(C)C)cc1)C(=O)C2=O	inconclusive: 39.8 µM [inhibitor, single point]
N#CCN1CCN(CC(=O)Nc2cccc3ccccc23)CC1	inconclusive: 39.8 µM [inhibitor, partial curve, poor fit]
CCN(Cc1cc2ccccc2[nH]c1=O)C(=O)c1cccc([N+](=O)[O-])c1	inactive
C=CCN=c1scc(-c2ccc3c(c2)NC(=O)CO3)n1/N=C(\C)c1ccccn1	inconclusive: 8.44 µM [inhibitor, partial curve, poor fit]
CC(=O)N(CCCN(C)C)Cc1ccccn1	inactive
COc1cc(OC)c(/C=C2\C(=O)Nc3ccccc32)c(OC)c1	inconclusive: 22.4 µM [inhibitor, partial curve]
COc1cc2c(cc1NC(=O)COC(=O)/C=C/c1ccccc1)oc1ccccc12	inconclusive: 15.8 µM [inhibitor, partial curve, poor fit]
Cc1ccc(C(=O)O)cc1N1C(=O)c2cccc3c([N+](=O)[O-])ccc(c23)C1=O	inconclusive: 31.6 µM [inhibitor, single point]
COc1ccc2cc(C=O)n(C)c2c1	inconclusive: 12.6 µM [inhibitor, partial curve]
C[C@H]1CN([C@@H](C)CO)C(=O)c2cccc(NC(=O)Nc3ccc(C(F)(F)F)cc3)c2O[C@@H]1CN(C)C(=O)Nc1ccc(F)cc1	active: 20 µM
CCc1ccc(OCC(=O)N/N=C(\C)c2ccc(O)cc2O)cc1	inconclusive: 31.6 µM [inhibitor, single point]
Cc1ccc(-c2csc(NCCc3nc4cc(Cl)c(Cl)cc4n3CCOCCO)n2)cc1	inconclusive: 28.2 µM [inhibitor, single point]
COc1cc(C=C2C(=O)C=CC2=O)ccc1O	active: 12.6 µM
CCCn1c(SCC(=O)N2N=C3/C(=C/c4ccc(OC)cc4)CCCC3C2c2ccc(OC)cc2)n[nH]c1=O (stereo not given)	inconclusive: 31.6 µM [inhibitor, single point]
COc1ccccc1C(=O)Nc1ccc2c(c1)CCCN2C(=O)c1cccs1	inconclusive: 25.1 µM [inhibitor, partial curve, poor fit]
CC(C)C[C@@H](CN1CCC[C@@H]1CN1C(=S)NC[C@@H]1Cc1ccc(O)cc1)N1C[C@H](Cc2ccc(O)cc2)N(CC2CCCCC2)C1=S	inconclusive: 31.6 µM [inhibitor, single point]
CCOc1ccc(CCNC(=O)c2cc3c(-c4ccc(OC)c(OC)c4)nn(C)c3s2)cc1OCC	inconclusive: 12.6 µM [inhibitor, partial curve]
CC(=O)c1ccc(OCc2cc(C(=O)N(C)CCOc3ccc(C)cc3)no2)cc1	inactive
O=C(Nc1cccnc1Oc1ccc(Cl)cc1)c1cccc2ccccc12	inconclusive: 22.4 µM [inhibitor, partial curve, poor fit]
